Data reported in PubChem BioAssay AID624417 (National Center for Advancing Translational Sciences (NCATS), 2012).
Out of some 410,000 compounds screened, about 6,400 (1.6%) were called active. This list was built around the results that the source calls inconclusive (neither active nor inactive); the mix of calls is not that of the screen. The call rests on the fitted dose curve; in most records, active means well fitted inhibition curve with a large enough effect; inconclusive means small, poorly fitted or top-dose-only effect; inactive means no such curve, though single readings can be large or run the other way. Potencies of inconclusive entries are doubtful fits and often do not repeat.

target: Glucagon-like peptide 1 receptor (Homo sapiens) (UniProt P43220); assay: qHTS of GLP-1 Receptor Inverse Agonists (Inhibition Mode); settings: HEK293 GLP-1R CRE-luciferase, luminescence, 24 h, GLP-1R form is constitutively active; activity change, negative = inhibition: at 38.3 µM (top of the series) unless noted; further: nearly all actives have a fitted effect of over 55% in size
Sequence of UniProt P43220 (P43220 whole entry, looked up): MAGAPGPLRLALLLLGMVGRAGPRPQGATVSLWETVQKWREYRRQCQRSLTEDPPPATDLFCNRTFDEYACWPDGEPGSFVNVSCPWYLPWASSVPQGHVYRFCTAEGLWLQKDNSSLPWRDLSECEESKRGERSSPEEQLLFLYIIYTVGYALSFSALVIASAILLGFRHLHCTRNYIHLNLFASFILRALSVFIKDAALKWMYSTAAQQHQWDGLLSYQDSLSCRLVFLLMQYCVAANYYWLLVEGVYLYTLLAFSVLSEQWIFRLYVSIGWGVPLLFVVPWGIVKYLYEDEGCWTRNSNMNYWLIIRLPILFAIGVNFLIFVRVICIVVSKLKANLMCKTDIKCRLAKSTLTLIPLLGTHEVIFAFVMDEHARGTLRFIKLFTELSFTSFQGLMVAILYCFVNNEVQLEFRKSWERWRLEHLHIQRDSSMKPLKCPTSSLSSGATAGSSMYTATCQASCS
How it was run: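 Inverse agonists were sought by their lowering of basal cAMP reporter luciferase output in HEK293 cells stably carrying constitutively active human GLP-1R, after 24 h compound treatment.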
On the % scale 0 is the no-effect control and ±100 the full control effect; potency means the concentration at half of the fitted maximal effect; tags describe the fitted curve by direction and shape.

Potency, inconclusive:
COc1ccc(-c2cc(=O)oc3c(C)c(O)ccc23)cc1 11.2 µM [inhibitor, partial curve, poor fit]
CCCN1CCC(=O)N([C@H](CSc2ccccc2)Cc2ccccc2)CC1 11.2 µM [inhibitor, partial curve]
CC1CCC2(CC1)NC(=O)N(CC(=O)NCCc1c[nH]c3ccccc13)C2=O (stereo unspecified) 12.6 µM [inhibitor, partial curve]
Cc1ccc(/C(N)=N/OC(=O)Cc2cccc3ccccc23)cc1 2 µM [inhibitor, partial curve, poor fit]
COc1cc(-c2ccc3oc(-c4ccsc4)c(C#CC4(O)CCCCC4)c3c2)cc(OC)c1OC 28.2 µM [inhibitor, single point]
CC(C)C(O)(C#CCN1CCCCC1)c1ccccc1 (stereo unspecified) 10 µM [inhibitor, single point]
O=C(Nc1cccnc1)c1ccc(S(=O)(=O)N2CCCCCC2)cc1 22.4 µM [inhibitor, single point]
C=CCN(C(=O)c1csnn1)C(C(=O)NC1CCCC1)c1ccc(Cl)cc1 (stereo unspecified) 28.2 µM [inhibitor, single point]
COc1cc2cc(CN(CCc3ccccc3C)C(=S)NCCCN(C)C)c(=O)[nH]c2cc1OC 3.16 µM [inhibitor, partial curve, poor fit]
CCCC[C@@H]1C[C@H]1[C@@H](NC(=O)c1ccco1)c1ccccc1C(F)(F)F 12.6 µM [inhibitor, partial curve, poor fit]
O=C(O)CN1CCNCCN(CC(=O)O)CCNCC1 8.91 µM [inhibitor, partial curve, poor fit]
Cc1ccc(CN2CCC2(C)C(=O)NC2CCc3ccccc32)cc1 (stereo unspecified) 10 µM [inhibitor, single point]
COc1ccc(OC)c(N/C=C/C(=O)c2ccccc2)c1 5.01 µM [inhibitor, full curve, poor fit]
COc1cccc(CN(C)C(=O)c2ccc(S(=O)(=O)Nc3cccc(C)c3C)cc2)c1OC 11.2 µM [inhibitor, partial curve, poor fit]
Cc1cccc(NC(=O)NC(=S)NC(=O)c2ccccc2)c1 28.2 µM [inhibitor, single point]
O=C(COc1ccccc1)N[C@@H]1c2ccccc2CC[C@H]1OCc1ccccc1 11.2 µM [inhibitor, partial curve, poor fit]
Cc1nc(-c2cccc(NC(=O)c3ccc(-n4nccc4C)cc3)c2)cs1 7.94 µM [inhibitor, partial curve, poor fit]
Cc1cccc(NC(=O)Cn2cnc3c(cnn3-c3ccc(F)cc3)c2=O)c1C 2 µM [inhibitor, partial curve, poor fit]
Cc1ccccc1-n1c(C)cc(/C=C(\C#N)C(=O)NCC2CCCO2)c1C (stereo unspecified) 6.31 µM [inhibitor, partial curve, poor fit]
COCOCCn1cc(CN2CCS(=O)(=O)N(Cc3ccc(-c4ccc(Cl)cc4)cc3)C(CC(C)C)C2=O)nn1 (stereo unspecified) 12.6 µM [inhibitor, single point]
Cc1ccnn1CCC(=O)N1CCCC(N2CCN(c3cccc(Cl)c3)CC2)C1 (stereo unspecified) 8.91 µM [inhibitor, partial curve, poor fit]
CCCOc1cc(C)c(S(=O)(=O)NC2CC(C)(C)NC(C)(C)C2)cc1C 15.8 µM [inhibitor, partial curve, poor fit]
O=C(c1ccc(CNS(=O)(=O)c2ccc(Br)cc2)cc1)N1CCCCCC1 10 µM [inhibitor, partial curve, poor fit]
CCN(c1ccccc1)S(=O)(=O)c1cc([N+](=O)[O-])ccc1N 28.2 µM [inhibitor, single point]
CCOP(=O)(OCC)C(C)(C)NC(=O)Nc1ccc(Cl)c(Cl)c1 1.58 µM [inhibitor, full curve, poor fit]
CCN(CC)CCn1c2c(c(SCC(=O)Nc3nc(C)cs3)nc1=O)CCCC2 28.2 µM [inhibitor, single point]
Cc1cccc(NC(=O)COc2coc(CN3CCN(Cc4ccccc4)CC3)cc2=O)c1 12.6 µM [inhibitor, partial curve, poor fit]
Cc1ccc(Cc2c(-c3ccc(C)cc3)nc3cc(C)ccn23)cc1 28.2 µM [inhibitor, single point]
Cc1ccc(C(=O)NCCOC23CC4CC(CC(C4)C2)C3)cc1 11.2 µM [inhibitor, partial curve, poor fit]
CCc1ccc(C(=O)C(C)OC(=O)c2cccc(S(=O)(=O)N3CCOCC3)c2)cc1 (stereo unspecified) 10 µM [inhibitor, partial curve]
Cc1cc(NCCCN2CCOCC2)n2ncc(-c3ccccc3)c2n1 7.94 µM [inhibitor, partial curve, poor fit]
Cc1ccc2[nH]c(=O)c(CN(CCCN(C)C)C(=O)Nc3ccc(F)cc3)cc2c1 31.6 µM [inhibitor, single point]
Cc1c(C(=O)N(C)Cc2cccc(F)c2)oc2c(Cl)cccc12 35.5 µM [inhibitor, partial curve, poor fit]
Nc1[nH]n(-c2ccccc2)c(=O)c1N=Nc1ccc2c(c1)OCO2 5.62 µM [inhibitor, partial curve, poor fit]
CC(C)(C)OC(=O)[C@H](Cc1ccccc1)NC(=O)c1nc[nH]c1C(=O)NCC(=O)OCc1ccccc1 14.1 µM [inhibitor, single point]
O=C(NC1CCCCC1)C(=S)NCCc1ccccc1 28.2 µM [inhibitor, single point]
COc1ccc(OCc2cc(C(=O)N3CCC(OC)CC3)no2)c2ccccc12 28.2 µM [inhibitor, single point]
Cc1ccc(NC(=O)Cn2cnc3sc(C(=O)NCc4ccco4)c(C)c3c2=O)cc1Cl 28.2 µM [inhibitor, single point]
CC(C)(C)CC(=O)Nc1cc(S(=O)(=O)N2CCCCCC2)ccc1Cl 4.47 µM [inhibitor, full curve]
CCOc1ccc(CNC(=O)Cc2ccc(NC(=O)N3CCCCc4ccccc43)cc2)cc1OC 28.2 µM [inhibitor, single point]
Cc1ccc(C2c3[nH]c4ccccc4c3CCN2C(=O)CCc2ccccc2)cc1 (stereo unspecified) 5.62 µM [inhibitor, full curve, poor fit]
O=S(Cc1ccc(Cl)cc1)c1ncc(CO)n1Cc1ccccc1 (stereo unspecified) 12.6 µM [inhibitor, partial curve, poor fit]
Cc1cc(Cl)ccc1NNC(=O)c1cccs1 2.24 µM [inhibitor, full curve, poor fit]
CCN(CC)S(=O)(=O)c1cc(C(=O)N2CCc3ccccc32)ccc1Cl 12.6 µM [inhibitor, partial curve, poor fit]
CCC(C)c1ccc(NC(=S)NCc2ccccn2)cc1 (stereo unspecified) 10 µM [inhibitor, partial curve, poor fit]
CCOC(=O)C1CCCN(S(=O)(=O)c2ccc(Br)c(OC)c2)C1 (stereo unspecified) 28.2 µM [inhibitor, single point]
N#CCCn1nc(-c2ccc(Br)cc2)cc1Nc1ccccc1NC(=O)C(F)(F)F 12.6 µM [inhibitor, partial curve, poor fit]

Potency, active:
CCCCCCN(C(=O)CCCN1C(=O)NC(c2ccc(-c3ccccc3)cc2)C(C(=O)OCc2ccccc2)=C1C)C(C)C(=O)NCCCC (stereo unspecified) 11.2 µM

Activity change, negative = inhibition, inactive:
O=C(Nc1ccc(NC(=O)c2ccc(Cl)c(S(=O)(=O)N3CCOCC3)c2)cc1)c1ccccc1 -5.08%
Cc1cc(=O)oc2c3c(ccc12)OCN(Cc1ccc(Cl)cc1)C3 10.1%
COc1cccc(OC)c1OCCCCN1CCCCC1 -1.49%
COc1ccc(-c2cc(CNc3nc4cc(-c5ccccc5C)sc4c(=O)n3C)on2)cc1 29.8%
Cc1[nH]n2c(=O)c3c(nc2c1-c1ccccc1)CCC3 -4.51%
COC(=O)[C@]1(Cc2ccccc2)N[C@H](CN(C)C(C)=O)[C@@H]2C(=O)N(Cc3ccccc3)C(=O)[C@@H]21 3.24%
COc1cc(NS(=O)(=O)c2ccc(NS(=O)(=O)c3ccc(C)cc3)cc2)nc(OC)n1 16.6%
CCN(Cc1nc(-c2ccc(OC)c(OC)c2)no1)C(=O)c1ccoc1C 76%
CC1CN(CCOCCOc2ccccc2-c2ccccc2)CC(C)O1 (stereo unspecified) -41.5%
CC(C)(C)c1ccc(C(=O)N2CCN(Cc3cc(=O)n4nc(-c5ccccc5F)sc4n3)CC2)cc1 0.387%
NC(=O)c1ccc(NC(=O)COC(=O)C2CC(=O)N(Cc3ccccc3)C2)cc1 (stereo unspecified) 15.4%
O=C(NC1CC2CCCC(C1)N2C(=O)NC1CCCCC1)c1ccc(F)cc1 (stereo unspecified) -3%
COc1cccc(NC(=S)/C(=C(\[O-])c2ccc([N+](=O)[O-])cc2)[n+]2ccccc2)c1 4.4%
